Source: US7619094B2, “Ketoamides with cyclic P4's as inhibitors of NS3 serine protease of hepatitis C virus” (Schering Corporation, priority 2004, dated 2009)

Molecular target: Recombinant heterodimeric HCV NS3/NS4A protease (strain 1a) (Hepatitis C virus genotype 1a, UniProt P27958)
Assay: HCV continuous assay (spectrophotometric HCV NS3/NS4A serine protease inhibition assay)
Type: biochemical, HCV (strain 1a)
Details: Table 1; ranges of Ki* values in HCV continuous assay

| SMILES | Ki [nM] |
| --- | --- |
| CNC(=O)C(=O)C(CCC(F)(F)F)NC(=O)[C@@H]1[C@@H]2[C@H](CN1C(=O)[C@@H](NC(=O)N[C@H](CN1CCN(C)S1(=O)=O)C(C)(C)C)C(C)(C)C)C2(C)C (stereo partly drawn) [Compound 5166] | ≤ 50 |
| CCCCC(NC(=O)[C@@H]1[C@@H]2[C@H](CN1C(=O)[C@@H](NC(=O)N[C@H](CN1CCCS1(=O)=O)C(C)(C)C)C1CCCCC1)C2(C)C)C(=O)C(=O)NCC (stereo partly drawn) [Compound 5236] | ≤ 50 |
| C=CCNC(=O)C(=O)C(CCC)NC(=O)[C@@H]1[C@@H]2[C@H](CN1C(=O)[C@@H](NC(=O)N[C@H](CN1CCCS1(=O)=O)C(C)(C)C)C(C)(C)C)C2(C)C (stereo partly drawn) [Compound 5115] | ≤ 50 |
| C=CCNC(=O)C(=O)C(CC1CC1)NC(=O)[C@@H]1[C@@H]2[C@H](CN1C(=O)[C@@H](NC(=O)N[C@H](CN1CCCS1(=O)=O)C(C)(C)C)C(C)(C)C)C2(C)C (stereo partly drawn) [Compound 5114] | ≤ 50 |
| CNC(=O)C(=O)C(CC1CC1)NC(=O)[C@@H]1[C@@H]2[C@H](CN1C(=O)[C@@H](NC(=O)N[C@H](CN1CCN(C(C)C)S1(=O)=O)C(C)(C)C)C(C)(C)C)C2(C)C (stereo partly drawn) [Compound 5220] | ≤ 50 |
| CCCC(NC(=O)[C@@H]1[C@@H]2[C@H](CN1C(=O)[C@@H](NC(=O)N[C@H](CN1CCCS1(=O)=O)C(C)(C)C)C(C)(C)C)C2(C)C)C(=O)C(N)=O (stereo partly drawn) [Compound 5120] | ≤ 50 |
| C=CCNC(=O)C(=O)C(CCCC)NC(=O)[C@@H]1[C@@H]2[C@H](CN1C(=O)[C@@H](NC(=O)N[C@H](CN1Cc3sccc3S1(=O)=O)C(C)(C)C)C(C)(C)C)C2(C)C (stereo partly drawn) [Compound 5154] | ≤ 50 |
| CC(C)(C)[C@H](NC(=O)N[C@H](CN1Cc2ccccc2S1(=O)=O)C(C)(C)C)C(=O)N1C[C@H]2[C@@H]([C@H]1C(=O)NC(CC1CC1)C(=O)C(N)=O)C2(C)C (stereo partly drawn) [Compound 5172] | ≤ 50 |
| CC(C)(C)[C@@H](CN1CCCCS1(=O)=O)NC(=O)N[C@H](C(=O)N1C[C@H]2[C@@H]([C@H]1C(=O)NC(CC1CC1)C(=O)C(N)=O)C2(C)C)C1CCCCC1 (stereo partly drawn) [Compound 5186] | ≤ 50 |
| CC(C)(C)[C@H](NC(=O)N[C@H](CN1Cc2ccccc2S1(=O)=O)C1CCCCC1)C(=O)N1C[C@H]2[C@@H]([C@H]1C(=O)NC(CC1CCC1)C(=O)C(N)=O)C2(C)C (stereo partly drawn) [Compound 5227] | ≤ 50 |
| CNC(=O)C(=O)C(CCC(F)(F)F)NC(=O)[C@@H]1[C@@H]2[C@H](CN1C(=O)[C@@H](NC(=O)N[C@H](CN1CCCS1(=O)=O)C(C)(C)C)C(C)(C)C)C2(C)C (stereo partly drawn) [Compound 5118] | ≤ 50 |
| C=CCNC(=O)C(=O)C(CC1CCC1)NC(=O)[C@@H]1[C@@H]2[C@H](CN1C(=O)[C@@H](NC(=O)N[C@H](CN1Cc3ccccc3S1(=O)=O)C(C)(C)C)C(C)(C)C)C2(C)C (stereo partly drawn) [Compound 5174] | ≤ 50 |
| CC(C)(C)[C@H](NC(=O)N[C@H](CN1CCCCS1(=O)=O)C(C)(C)C)C(=O)N1C[C@H]2[C@@H]([C@H]1C(=O)NC(CC1CC1)C(=O)C(N)=O)C2(C)C (stereo partly drawn) [Compound 5197] | ≤ 50 |
| C=CCNC(=O)C(=O)C(CC1CC1)NC(=O)[C@@H]1[C@@H]2[C@H](CN1C(=O)[C@@H](NC(=O)NC1(CN3Cc4sccc4S3(=O)=O)CCCCC1)C(C)(C)C)C2(C)C (stereo partly drawn) [Compound 5207] | > 50 |
| CCCCC(NC(=O)[C@@H]1[C@@H]2[C@H](CN1C(=O)[C@@H](NC(=O)N[C@H](CN1Cc3ccccc3S1(=O)=O)C(C)(C)C)C1CCCCC1)C2(C)C)C(=O)C(=O)NCC (stereo partly drawn) [Compound 5251] | ≤ 50 |
| C=CCNC(=O)C(=O)C(CCC)NC(=O)[C@@H]1[C@@H]2[C@H](CN1C(=O)[C@@H](NC(=O)N[C@H](CN1CCCCS1(=O)=O)C(C)(C)C)C(C)(C)C)C2(C)C (stereo partly drawn) [Compound 5121] | ≤ 50 |

Same assay, conditions: Table 2; ranges of Ki* values in HCV continuous assay

| SMILES | Ki [nM] |
| --- | --- |
| CC(C)(C)[C@H](NC(=O)N[C@H](CN1C(=O)c2cc[n+]([O-])cc2C1=O)C(C)(C)C)C(=O)N1C[C@H]2[C@@H]([C@H]1C(=O)NC(CC1CCC1)C(=O)C(N)=O)C2(C)C (stereo partly drawn) [Compound 5774] | ≤ 50 |
| C=CCNC(=O)C(=O)C(CCCC)NC(=O)[C@@H]1[C@@H]2[C@H](CN1C(=O)[C@@H](NC(=O)N[C@H](CN1CCOC1=O)C(C)(C)C)C(C)(C)C)C2(C)C (stereo partly drawn) [Compound 5631] | ≤ 50 |
| C=CCNC(=O)C(=O)C(CC1CC1)NC(=O)[C@@H]1[C@@H]2[C@H](CN1C(=O)[C@@H](NC(=O)NC1(CN3C(=O)c4ccccc4C3=O)CCCCC1)C(C)(C)C)C2(C)C (stereo partly drawn) [Compound 5679] | > 50 |
| C#CCCC(NC(=O)[C@@H]1[C@@H]2[C@H](CN1C(=O)[C@@H](NC(=O)N[C@H](CN1CCCCC1=O)C(C)(C)C)C1(C)CCCCC1)C2(C)C)C(=O)C(=O)NCC=C (stereo partly drawn) [Compound 5780] | ≤ 50 |
| CC(C)(C)[C@H](NC(=O)N[C@H](CN1CCCC1=O)C(C)(C)C)C(=O)N1C[C@H]2[C@@H]([C@H]1C(=O)NC(CC1CCC1)C(=O)C(N)=O)C2(C)C (stereo partly drawn) [Compound 5622] | ≤ 50 |
| C=CCNC(=O)C(=O)C(CC1CC1)NC(=O)[C@@H]1[C@@H]2[C@H](CN1C(=O)[C@@H](NC(=O)N[C@H](CN1C(=O)CC3(CCCC3)CC1=O)C(C)(C)C)C1CCCCC1)C2(C)C (stereo partly drawn) [Compound 5797] | ≤ 50 |
| C=CCNC(=O)C(=O)C(CCC)NC(=O)[C@@H]1[C@@H]2[C@H](CN1C(=O)[C@@H](NC(=O)N[C@H](CN1CCOC1=O)C(C)(C)C)C(C)(C)C)C2(C)C (stereo partly drawn) [Compound 5627] | ≤ 50 |
| C=CCNC(=O)C(=O)C(CC1CC1)NC(=O)[C@@H]1[C@@H]2[C@H](CN1C(=O)[C@@H](NC(=O)N[C@H](CN1CCCN(C)C1=O)C(C)(C)C)C(C)(C)C)C2(C)C (stereo partly drawn) [Compound 5684] | > 50 |
| C#CCCC(NC(=O)[C@@H]1[C@@H]2[C@H](CN1C(=O)[C@@H](NC(=O)N[C@H](CN1CCCCC1=O)C1CCCCC1)C(C)(C)C)C2(C)C)C(=O)C(=O)NCC=C (stereo partly drawn) [Compound 5740] | ≤ 50 |
| CNC(=O)C(=O)C(CC1CC1)NC(=O)[C@@H]1[C@@H]2[C@H](CN1C(=O)[C@@H](NC(=O)N[C@H](CN1C(=O)c3ccccc3C1=O)C(C)(C)C)C(C)(C)C)C2(C)C (stereo partly drawn) [Compound 5635] | ≤ 50 |
| CC(C)(C)[C@H](NC(=O)N[C@H](Cn1ccccc1=O)C(C)(C)C)C(=O)N1C[C@H]2[C@@H]([C@H]1C(=O)NC(CC1CC1)C(=O)C(N)=O)C2(C)C (stereo partly drawn) [Compound 5649] | ≤ 50 |
| C=CCNC(=O)C(=O)C(CCC)NC(=O)[C@@H]1[C@@H]2[C@H](CN1C(=O)[C@@H](NC(=O)N[C@H](CN1C(=O)CCC1=O)C(C)(C)C)C(C)(C)C)C2(C)C (stereo partly drawn) [Compound 5637] | ≤ 50 |
| C=CCNC(=O)C(=O)C(CCC)NC(=O)[C@@H]1[C@@H]2[C@H](CN1C(=O)[C@@H](NC(=O)N[C@H](CN1C(=O)CCCC1=O)C(C)(C)C)C1(C)CCCCC1)C2(C)C (stereo partly drawn) [Compound 5799] | ≤ 50 |
| C=CCNC(=O)C(=O)C(CC1CC1)NC(=O)[C@@H]1[C@@H]2[C@H](CN1C(=O)[C@@H](NC(=O)N[C@H](CN1CCCCC1=O)C(C)C)C(C)(C)C)C2(C)C (stereo partly drawn) [Compound 5608] | > 50 |
| C=CCNC(=O)C(=O)C(CCCC)NC(=O)[C@@H]1[C@@H]2[C@H](CN1C(=O)[C@@H](NC(=O)N[C@H](CN1C(=O)CCCC1=O)C(C)(C)C)C1(C)CCCCC1)C2(C)C (stereo partly drawn) [Compound 5798] | ≤ 50 |
| CNC(=O)C(=O)C(CC1CC1)NC(=O)[C@@H]1[C@@H]2[C@H](CN1C(=O)[C@@H](NC(=O)N[C@H](CN1C(=O)c3ccncc3C1=O)C(C)(C)C)C(C)(C)C)C2(C)C (stereo partly drawn) [Compound 5657] | ≤ 50 |
| CC(C)[C@@H](Cn1ccccc1=O)NC(=O)N[C@H](C(=O)N1C[C@H]2[C@@H]([C@H]1C(=O)NC(CC1CCC1)C(=O)C(N)=O)C2(C)C)C(C)(C)C (stereo partly drawn) [Compound 5604] | ≤ 50 |
| CCCC(NC(=O)[C@@H]1[C@@H]2[C@H](CN1C(=O)[C@@H](NC(=O)N[C@H](CN1Cc3ccccc3C1=O)C(C)(C)C)C1CCCCC1)C2(C)C)C(=O)C(=O)NC1CC1 (stereo partly drawn) [Compound 5766] | ≤ 50 |
| CCCC(NC(=O)[C@@H]1[C@@H]2[C@H](CN1C(=O)[C@@H](NC(=O)N[C@H](CN1C(=O)CC(C)(C)CC1=O)C(C)(C)C)C1(C)CCCCC1)C2(C)C)C(=O)C(=O)NC1CC1 (stereo partly drawn) [Compound 5809] | ≤ 50 |
| C=CCNC(=O)C(=O)C(CC1CC1)NC(=O)[C@@H]1[C@@H]2[C@H](CN1C(=O)[C@@H](NC(=O)N[C@H](CN1C(=O)c3ccccc3C1=O)C(C)(C)C)C(C)(C)C)C2(C)C (stereo partly drawn) [Compound 5634] | ≤ 50 |
| C=CCNC(=O)C(=O)C(CC1CC1)NC(=O)[C@@H]1[C@@H]2[C@H](CN1C(=O)[C@@H](NC(=O)N[C@H](CN1CCCCC1=O)C1CCCCC1)C(C)(C)C)C2(C)C (stereo partly drawn) [Compound 5732] | ≤ 50 |
| C=CCNC(=O)C(=O)C(CCC)NC(=O)[C@@H]1[C@@H]2[C@H](CN1C(=O)[C@@H](NC(=O)N[C@H](CN1CCCCC1=O)C(C)(C)C)C1CCCCC1)C2(C)C (stereo partly drawn) [Compound 5710] | ≤ 50 |
| C=CCNC(=O)C(=O)C(CC1CC1)NC(=O)[C@@H]1[C@@H]2[C@H](CN1C(=O)[C@@H](NC(=O)N[C@H](CN1CCCNC1=O)C(C)(C)C)C1Cc3ccccc3C1)C2(C)C (stereo partly drawn) [Compound 5727] | ≤ 50 |
| C=CCNC(=O)C(=O)C(CCCC)NC(=O)[C@@H]1[C@@H]2[C@H](CN1C(=O)[C@@H](NC(=O)N[C@H](CN1CCCOC1=O)C(C)(C)C)C(C)(C)C)C2(C)C (stereo partly drawn) [Compound 5703] | ≤ 50 |
| CC1(C)CC(=O)N(C[C@@H](NC(=O)N[C@H](C(=O)N2C[C@H]3[C@@H]([C@H]2C(=O)NC(CC2CCC2)C(=O)C(N)=O)C3(C)C)C2CCCCC2)C(C)(C)C)C(=O)C1 (stereo partly drawn) [Compound 5784] | ≤ 50 |
| C#CCCC(NC(=O)[C@@H]1[C@@H]2[C@H](CN1C(=O)[C@@H](NC(=O)N[C@H](CN1CCCN(C)C1=O)C(C)(C)C)C(C)(C)C)C2(C)C)C(=O)C(=O)NCC=C (stereo partly drawn) [Compound 5706] | > 50 |
| C#CCCC(NC(=O)[C@@H]1[C@@H]2[C@H](CN1C(=O)[C@@H](NC(=O)N[C@H](CN1Cc3ccccc3C1=O)C(C)(C)C)C(C)(C)C)C2(C)C)C(=O)C(=O)NCC=C (stereo partly drawn) [Compound 5749] | ≤ 50 |
| C=CCNC(=O)C(=O)C(CCCC)NC(=O)[C@@H]1[C@@H]2[C@H](CN1C(=O)[C@@H](NC(=O)N[C@H](CN1C(=O)CC3(CCCC3)CC1=O)C(C)(C)C)C1CCCCC1)C2(C)C (stereo partly drawn) [Compound 5810] | ≤ 50 |
| C=CCNC(=O)C(=O)C(CCC)NC(=O)[C@@H]1[C@@H]2[C@H](CN1C(=O)[C@@H](NC(=O)N[C@H](CN1CCCC1=O)C(C)(C)C)C(C)(C)C)C2(C)C (stereo partly drawn) [Compound 5620] | ≤ 50 |
